# In all, about 200,000 compounds went through this assay and about 560 (0.28%) were called active. Calls follow the shape of the dose curve; as a rule, active = well fitted inhibition curve with a large enough effect; inconclusive = small, poorly fitted or top-dose-only effect; inactive = flat fitted curve, though single readings scatter. The list shows a part of the results, in another mix than the full data. Where a structure was tested more than once in an assay, its records may differ in their call.
# Target: Luciferin 4-monooxygenase (Photuris pensylvanica) (UniProt Q27757)
# Test: Counterscreen for Luciferase (Kinase-Glo TM) Inhibition; also: nearly all actives have a fitted effect of over 60% in size
# Details: ATP luminescence, 8 min; series mostly up to 38.3 µM; activity change, negative = inhibition: at the top concentration
# Description: NCGC Assay Overview: NIH Molecular Libraries Screening Centers Network [MLSCN] NIH Chemical Genomics Center [NCGC] MLSCN Grant: None Luciferase (Kinase-Glo, Promega Corporation) was assayed for its ability to generate light using ATP and luciferin as substrates. The ATP concentration in the assay (10 uM) was within the linear range of enzyme activity for the assay conditions used.
# NCGC Assay Protocol Summary: Four uL of substrate mix (final concentration, 50 mM imidazole pH 7.2, 50 mM KCl, 7 mM MgCl2, 10 uM ATP, 0.01% Tween 20, 0.05% BSA) was dispensed into white 1536 well plates. Twenty-three nL of compound was delivered by a pin tool and 2 uL of luciferase detection mix (Kinase-Glo, Promega)) was added. Following 8-minute incubation at ambient temperature, luminescence was measured by a ViewLux (Perkin Elmer) at 5 seconds exposure/plate.
# % is scaled to controls: 0 for no effect and ±100 for the full control effect; potency is read from the fitted curve at half-maximal effect.
SMILES,"activity change, negative = inhibition",Potency
O=C1c2c(O)ccc(O)c2C(=O)c2c(NCCNCCO)ccc(NCCNCCO)c21,inactive: -11.5% [at 17.1 µM],–
Cc1ccc(-c2nc(N/N=C/c3cccnc3)c3ccccc3n2)cc1,–,active: 7.94 µM
Cc1nc(N=Nc2cc(S(=O)(=O)O)c3cc([N+](=O)[O-])cc(S(=O)(=O)O)c3c2)c(COP(=O)(O)O)c(C=O)c1O,inactive: -20.4%,–
Oc1cc(O)cc(/C=C/c2ccc(O)c(O)c2)c1,inactive: -6.54%,–
CN1C(=O)/C(=C/c2cc(N=Nc3ccccc3)ccc2O)SC1=S,inactive: -22.9%,–
COc1cc2nc(N3CCN(C(=O)[C@H]4CCCO4)CC3)nc(N)c2cc1OC,inactive: -16.1%,–
c1c2c(cc3sc(N4CCOCC4)nc13)OCO2,–,active: 11.2 µM
COc1ccc(-c2nnc(SCC(=O)N(Cc3ccccc3)C(C)(C)C)o2)cc1OC,inactive: 32%,–
O=C(/C=C/Nc1ccccc1)c1ccccc1,–,active: 7.08 µM
Oc1cc2c(cc1O)[C@@H]1c3ccc(O)c(O)c3OC[C@]1(O)C2,inactive: -2.81%,–
c1c2c(cc3sc(N4CCCCC4)nc13)OCCO2,–,active: 12.6 µM
Oc1cc2c(cc1O)[C@H]1c3ccc(O)c(O)c3OC[C@@]1(O)C2,inactive: 0.288%,–
c1ccc(-c2nc3ccccc3[nH]2)nc1,–,active: 7.94 µM
COc1cc2nc(N3CCN(C(=O)C4CCCO4)CC3)nc(N)c2cc1OC (configuration not stated),–,inactive
Cc1ccsc1/C=C/c1ccc2ccccc2n1,–,active: 11.2 µM
Cc1cc(C(=O)N/N=C/c2ccc3c(c2)OCO3)c(C)o1,–,active: 12.6 µM
COc1ccccc1Nc1nnc(SCC2CCCCO2)s1 (configuration not stated),–,active: 8.91 µM
COC1/C=C/OC2(C)Oc3c(C)c(O)c4c(O)c(c(/C=N/N5CCN(C)CC5)c(O)c4c3C2=O)NC(=O)/C(C)=C/C=C/C(C)C(O)C(C)C(O)C(C)C(OC(C)=O)C1C (configuration not stated),inactive: -8.09%,–
Cc1occc1C(=O)Nc1ccc2c(c1)OCCO2,–,active: 7.08 µM
COc1cc2nc(N3CCN(C(=O)[C@@H]4CCCO4)CC3)nc(N)c2cc1OC,inactive: -10% [at 17.1 µM],–
Cc1c(C(=O)O)c(O)cc2c1C(=O)c1c(O)c([C@H]3O[C@H](CO)[C@@H](O)[C@H](O)[C@H]3O)c(O)c(O)c1C2=O,inactive: -29.5% [at 39.9 µM],–
Cc1cccc(/C=C/c2nc3ccccc3c(=O)[nH]2)c1,inactive: -20.4%,–
